According to the supplement of paper PMC9446081:
The campaign covered roughly 39,000 compounds. About 220 (0.56%) showed activity. Some of the results follow.

tested on: Escherichia coli K-12 BW25113; assay: relative growth (OD600 normalised to plate interquartile mean) (fraction); higher = less growth inhibition, active = 0.2 or less; conditions: 50 µM; LB; incubation time: overnight (16-24 h)
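Further: static incubation at 37 °C against the wild-type strain, values averaged over two biological replicates.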

Row | SMILES | relative growth
1 | C[C@@H]1CN([C@@H](C)CO)C(=O)c2cc(-c3ccc(C#N)cc3)cnc2O[C@H]1CN(C)C(=O)Nc1ccc(C(F)(F)F)cc1 | inactive: 0.998
2 | CO[C@H]1CN(C)C(=O)c2ccc(NS(C)(=O)=O)cc2OC[C@@H](C)N(C(=O)CN(C)C)C[C@H]1C | inactive: 0.992
3 | O=C(C[C@@H]1CC[C@H]2[C@@H](COC[C@H](O)CN2C(=O)C2CC2)O1)NCc1ccncc1 | inactive: 1
4 | Cc1ccc(S[C@]2(C(=O)NCC(F)(F)F)CC(=O)N(Cc3ccccc3C(F)(F)F)[C@@H]2c2ccc(CO)cc2)cc1 | inactive: 1.01
5 | C[C@H]1CN([C@@H](C)CO)C(=O)c2ccccc2-c2ccccc2CO[C@H]1CN(C)S(=O)(=O)c1ccc(C(F)(F)F)cc1 | inactive: 1.04
6 | CNC(=O)[C@@H](NC(=O)[C@H](CC(C)C)[C@H](O)C(=O)NO)C(C)(C)C | inactive: 0.916
7 | C[C@H]1CCCCO[C@H](CN(C)C(=O)C2CCCCC2)[C@@H](C)CN([C@@H](C)CO)C(=O)c2cc(NC(=O)Nc3ccc(F)cc3)ccc2O1 | inactive: 0.976
8 | C[C@@H]1CN([C@@H](C)CO)C(=O)c2cc(NC(=O)Nc3ccc(C(F)(F)F)cc3)ccc2O[C@@H](C)CCCCO[C@@H]1CN(C)C(=O)C1CCCCC1 | inactive: 1.07
9 | COCCOC(=O)N1C(=O)[C@@]2(c3ccccc31)[C@H](C(=O)N1CCCCCCC1)[C@H]1C(=O)O[C@H](c3ccccc3)[C@H](c3ccccc3)N1[C@@H]2c1ccc(OCCO)cc1 | inactive: 1.05
10 | CO[C@@H]1CN(C)C(=O)c2ccc(NC(=O)C3CC3)cc2OC[C@H](C)N(C(=O)C2CCOCC2)C[C@H]1C | inactive: 0.966
11 | COc1ccc(NC(=O)Nc2ccc3c(c2)C(=O)N([C@H](C)CO)C[C@@H](C)[C@H](CN(C)Cc2ccncc2)OCCCC[C@@H](C)O3)cc1 | inactive: 1.01
12 | C[C@@H]1CN([C@@H](C)CO)C(=O)c2cccc(NS(C)(=O)=O)c2O[C@@H]1CN(C)S(=O)(=O)c1ccccc1 | inactive: 0.99
13 | O=C(C[C@H]1CC[C@@H]2[C@H](COC[C@@H](O)CN2C(=O)Nc2ccc(C(F)(F)F)cc2)O1)NCc1ccncn1 | inactive: 1
14 | C[C@@H]1CN([C@H](C)CO)C(=O)c2cc(NS(=O)(=O)c3ccc(Cl)cc3)ccc2O[C@@H]1CN(C)S(=O)(=O)c1cn(C)cn1 | inactive: 1
15 | CCCN(C)C[C@@H]1OCCCC[C@H](C)Oc2ccc(NC(=O)Cc3ccccc3)cc2C(=O)N([C@@H](C)CO)C[C@@H]1C | inactive: 0.982
16 | COC(=O)C[C@H]1CC[C@@H]2[C@H](COC[C@@H](O)CN2S(=O)(=O)c2cn(C)cn2)O1 | inactive: 0.966
17 | C[C@H]1CN([C@@H](C)CO)C(=O)c2c(c3ccccc3n2C)-c2ccccc2CO[C@@H]1CN(C)Cc1ccc(F)cc1 | inactive: 0.966
18 | COc1ccc(S(=O)(=O)N2C[C@@H](O)COC[C@H]3O[C@H](CC(=O)NCCN4CCCCC4)CC[C@@H]32)cc1 | inactive: 0.996
19 | CN(C)CCCCNC(=O)[C@H]1C[C@H]2C(=O)N[C@@H](CCCCN)C(=O)N2[C@H]1c1ccc(O)cc1 | inactive: 0.971

Row | SMILES | relative growth
20 | COc1cccc(S(=O)(=O)N[C@@H]2C=C[C@@H](CC(=O)NC3CCC3)O[C@H]2CO)c1 | inactive: 1.01
21 | C[C@@H]1CN([C@H](C)CO)C(=O)Cc2cc(NC(=O)C3CCCCC3)ccc2O[C@H]1CN(C)Cc1ccc(C(=O)Nc2ccccc2N)cc1 | inactive: 0.979
22 | CO[C@@H]1CN(C)C(=O)c2cc(NS(=O)(=O)CC(F)(F)F)ccc2OC[C@@H](C)N(C(=O)c2ccc3c(c2)OCO3)C[C@H]1C | inactive: 0.937
23 | CO[C@@H]1CCN(C(=O)CS(C)(=O)=O)[C@@H]2CCO[C@H]21 | inactive: 1.03
24 | C[C@H](CO)N1C[C@H](C)[C@@H](CN(C)C(=O)C2CCCCC2)OCCCC[C@H](C)Oc2ccc(NC(=O)Nc3cccc4ccccc34)cc2C1=O | inactive: 1.04
25 | C[C@H]1CCCCO[C@H](CN(C)CC2CCCCC2)[C@@H](C)CN([C@@H](C)CO)C(=O)c2cc(NS(=O)(=O)c3ccc(F)cc3)ccc2O1 | inactive: 0.966
26 | C[C@H]1CN([C@@H](C)CO)C(=O)Cc2cc(NC(=O)Nc3ccc(C(F)(F)F)cc3)ccc2O[C@H]1CN(C)S(=O)(=O)c1ccc(Cl)cc1 | inactive: 1.02
27 | C[C@H](CO)N1C[C@H](C)[C@@H](CN(C)C(=O)Nc2ccccc2)Oc2ccc(NS(C)(=O)=O)cc2C1=O | inactive: 0.992
28 | C[C@@H]1CN([C@H](C)CO)S(=O)(=O)c2ccc(C#Cc3ccccc3)cc2O[C@@H]1CN(C)S(=O)(=O)c1ccccc1F | inactive: 1.03
29 | C[C@H](CO)N1C[C@H](C)[C@H](CN(C)Cc2ccc(-c3ccccc3)cc2)Oc2ccc(NC(=O)Nc3ccc4c(c3)OCO4)cc2CC1=O | inactive: 1.02
30 | CC(C)NC(=O)N(C)C[C@H]1Oc2ccc(NC(=O)Cc3ccccc3)cc2CC(=O)N([C@@H](C)CO)C[C@@H]1C | inactive: 0.976
31 | C=C(C)c1c2c(c(Cl)c3ccccc13)C[N+](CC)(CC)C2 | inactive: 1.04
32 | CCc1nc2[nH]c(C)cc(=O)n2n1 | inactive: 0.901
33 | C[C@H](CO)N1C[C@H](C)[C@H](CN(C)S(=O)(=O)c2ccccc2)Oc2ccc(NS(C)(=O)=O)cc2CC1=O | inactive: 1.03
34 | COc1ccc(CCNC(=O)[C@@]2(Sc3ccc(C)cc3)CC(=O)N(Cc3ccccc3Cl)[C@@H]2c2ccc(CO)cc2I)cc1 | inactive: 0.991
35 | COc1cc(/C=C/C(=O)N(C)CCN(C)C(=O)/C=C/c2cc(OC)c(OC)c(OC)c2)cc(OC)c1OC | inactive: 0.978
36 | CC(C)(C)[C@H]1C=C(C(=O)N2CCCCCCC2)O[C@@H](OCc2ccc(COC(=O)NCCCCCC(=O)NO)cc2)C1 | inactive: 0.992
37 | C[C@@H]1CN([C@H](C)CO)C(=O)c2cccc(NC(=O)Nc3cccc4ccccc34)c2O[C@H]1CN(C)C(=O)NC1CCCCC1 | inactive: 0.975
38 | C[C@H]1CN([C@@H](C)CO)C(=O)c2cc(C#CC3(O)CCCC3)cnc2O[C@H]1CN(C)S(=O)(=O)c1ccccc1 | inactive: 1.02
